Out of some 48,000 compounds screened, about 450 (0.94%) were called active. Not shown: some 19% with an inconclusive outcome. Calls follow the shape of the dose curve; as a rule, active = well fitted inhibition curve with a large enough effect; inconclusive = small, poorly fitted or top-dose-only effect; inactive = no such curve, though single readings can be large or run the other way. The list shows a part of the results.
test: Primary qHTS for Identification of Small Molecule Inhibitors of Huntingtin Promoter Activity; conditions: HEK293 HTT promoter firefly luciferase reporter (activity 0% = vehicle and -100% = no light), 24 h; series mostly up to 57.5 µM; activity change, negative = inhibition: at the top concentration; also: nearly all actives have a fitted effect of over 50% in size
How it was run: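 Quantitative HTS used concentration series of up to 57.5 uM final on HEK293 luciferase reporter cells, 24 h at 37 degrees C. Readout was Dual-Glo firefly luminescence.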

Activity change, negative = inhibition, inactive:
CCn1nc(C)c2c(-c3ccccc3)cc(=O)n(C(C)C(=O)NCc3ccccc3OC)c21 (stereo unspecified) -29.1%, Cc1ccccc1C(=O)Nc1cccc(OCc2cc(=O)n3cccc(C)c3n2)c1 10.8%, Cc1ccc(C)c(NC(=O)Cn2cc(S(=O)(=O)Cc3cccc(Cl)c3)c3ccccc32)c1 -12.4%, CCc1ccc(NC(=O)CN2C(=O)CSc3ccc(S(=O)(=O)N(C)C)cc32)cc1 -8.94%, CCn1cc(C(=O)NCCc2ccc(OC)c(OC)c2)c(=O)c2cc(S(=O)(=O)N(C)C3CCCCC3)ccc21 -30%, CC(=O)O[C@]1(C(C)=O)CC[C@H]2[C@@H]3C=C(Cl)C4=CC(=O)CC[C@]4(C)[C@H]3CC[C@@]21C -6.99%, COc1ccc2cc3c(N)nn(C(=O)c4ccccc4Cl)c3nc2c1 -29.4%, CCc1ccc(NCc2cc3ccc(OC)cc3n(CC(=O)Nc3c(C)cc(C)cc3C)c2=O)cc1 -4.62%, CCCNC(=O)NS(=O)(=O)c1ccc(Cl)cc1 11.8%, CC(C)Oc1ccc(C(=O)N(Cc2ccc(N(C)C)cc2)C2CCS(=O)(=O)C2)cc1 (stereo unspecified) -17.1%, Cn1nnc2c(N3CCN(c4ccc(F)cc4)CC3)ncnc21 -25.7%, Cc1ccccc1CNC(=O)CCS(=O)(=O)c1cc2c3c(c1)CCN3C(=O)CC2 -2.89%, Fc1ccc(-n2ncc3c(Nc4ccc5c(c4)OCCO5)ncnc32)cc1 2.33%, Cc1ccc(N2CCN(C(=O)c3cc4cc5ccc(C)cc5nc4s3)CC2C)cc1 (stereo unspecified) 0.798%, Cc1ccc(Nc2sc(C(=O)c3ccccc3)c(N)c2S(=O)(=O)c2ccccc2)cc1Cl -27.2%, CCc1ccc(CNC(=O)Cn2nc(-c3ccc(C)cc3)ccc2=O)cc1 -9.04%, COc1ccccc1N1CCN(C(=O)CCS(=O)(=O)c2ccc3c(c2)oc(=O)n3C)CC1 -13.9%, COc1ccc(O)c(C2=Nc3ccccc3N=C(c3ccccc3)C2)c1 -22.6% [at 11.5 µM], CCOC(=O)c1nc(Nc2ccc(C(=O)OC(C)C)cc2)c2ccccc2n1 -9.19%, COc1ccc(-c2nc(N3CCOCC3)c3sc(CN(C)c4ncc(C(=O)NO)cn4)cc3n2)cn1 109%, COc1ccccc1NC(=O)c1oc2ccccc2c1NC(=O)Cc1ccccc1 -15.5%, O=C(CN1C(=O)CC(c2ccccc2)=Nc2ccccc21)Nc1ccc(Br)cc1 -24.2%, CNC(=O)c1ccc2c(c1)N(Cc1cc(C)ccc1C)C(=O)c1ccccc1S2 -23%, COc1ccc(CNC(=O)c2ccc(-c3nc(CSc4ccc(C)cc4)c(C)o3)cc2)c(OC)c1 -19.1%, Cc1cccc(CCNC(=O)c2cc3c(s2)-c2c(C)cccc2OC3)c1 -33.8%, Cc1ccc2c(c1)N(C(=O)Nc1cccc3c1CCCC3)CCO2 -13.4%

— PubChem BioAssay AID1508623 (National Center for Advancing Translational Sciences (NCATS), 2021)
